Data from PubChem BioAssay AID504832 (National Center for Advancing Translational Sciences (NCATS), 2011).
In all, about 310,000 compounds went through this assay and about 18,000 (5.8%) were called active. This list was built around the results that the source calls inconclusive (neither active nor inactive); the mix of calls is not that of the screen. The call rests on the fitted dose curve; in most records, active means well fitted inhibition curve with a large enough effect; inconclusive means small, poorly fitted or top-dose-only effect, or another doubt; inactive means no such curve, though single readings can be large or run the other way. No potency is given beside an inconclusive call; the fits are too rough.

Assay: Primary qHTS for delayed death inhibitors of the malarial parasite plastid, 48 hour incubation
Settings: P. falciparum luciferase growth in erythrocytes; series mostly up to 28.7 µM
Summary of the method: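 Growth was read as firefly luciferase luminescence after a 48 h, 37 C, 5% CO2 exposure of compounds to reporter-bearing P. falciparum cultures (0.1% parasitemia, 2% hematocrit final) in Albumax-supplemented RPMI 1640.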
Potency means the concentration at half of the fitted maximal effect; tags describe the fitted curve by direction and shape.

Structure (SMILES)	Potency
Cc1c(N=Nc2ccc(N(C)C)cc2)c(=O)n(-c2ccccc2)n1C	inconclusive [inhibitor, partial curve]
CCCCOc1ccc(Nc2nc(C)cc(C)c2C#N)cc1	inactive
CCc1c(C)[nH]c2ccc(C)cc2c1=O	active: 1.65 µM
C=CCn1cc(CN2CCC(C(=O)Nc3ccc(Oc4cccnc4)cc3)CC2)c(C)n1	inconclusive [inhibitor, single point]
CCc1ccc(C(=O)NC(=S)Nc2ccc3c(c2)OCCO3)cc1	inactive
C=CCn1c(SCC(=O)N2CCOCC2)nc2sc(C)c(C)c2c1=O	inactive
CC[C@@]12C(=O)N(c3cccc(F)c3)C(=O)N1[C@H](c1ccc(OC)cc1)[C@@H]1C(=O)N(C(C)(C)C)C(=O)[C@@H]12	inconclusive [inhibitor, single point]
COC(=O)CN1C(c2ccc(OC)cc2)=Nc2ccc(Cl)cc2C1c1ccccc1 (stereo unspecified)	active: 14.7 µM
O=C(NC1CCN(S(=O)(=O)c2ccc(F)cc2)CC1)c1ccccc1	inactive
Cc1ccccc1-n1c(C)cc(/C=N/Nc2ccc([N+](=O)[O-])cn2)c1C	inconclusive [inhibitor, single point]
COc1ccc(-c2nc3c(-c4ccc(F)cc4)cnn3cc2C)cc1F	inconclusive [inhibitor, partial curve, poor fit]
O=C(Cc1ccc(NS(=O)(=O)c2cccc(C(F)(F)F)c2)cc1)NCCN1CCOCC1	inconclusive [inhibitor, single point]
Cc1ccccc1CN1CCNC1=O	active: 9.28 µM
COC(=O)c1ccc(NC(=S)NNC(=O)CC(C)C)cc1	inactive
CCCOc1ccc(NC(=O)CC2C(=O)N(c3ccc(OCC)cc3)C(=S)N2C2CC2)cc1 (stereo unspecified)	inconclusive [inhibitor, partial curve]
CCCCNC(=O)C1CC(c2c(Cl)cccc2Cl)=NO1 (stereo unspecified)	inactive
CC1CCC(C(C)C)C(OC(=O)Cn2c(-c3ccc(Br)cc3)[n+](C)c3ccccc32)C1 (stereo unspecified)	active: 1.65 µM
COc1ccc(-c2nc3c(s2)CCc2onc(-c4ccc(OC)cc4)c2-3)cc1	inconclusive [inhibitor, single point]
Cc1cc(C)c(NC(=O)CN2C(=O)NC3(CCCc4ccccc43)C2=O)c(Cl)c1 (stereo unspecified)	inconclusive [inhibitor, single point]
COc1cc(/C=C(\C#N)C(=O)N2CCCCC2)ccc1O	inconclusive [inhibitor, full curve]
COc1ccc(-c2c(-c3cc(OC)cc(OC)c3)n(C)c3ccc(-c4ccc(OC)nc4)cc23)cc1	inconclusive [inhibitor, single point]
Cc1ccc(Cl)cc1N1CCN(CC(=O)NC2CCCc3ccccc32)CC1 (stereo unspecified)	inconclusive [inhibitor, partial curve, poor fit]

Structure (SMILES)	Potency
COc1ccc(-n2nnnc2CNC(=O)C(=O)c2c(C)[nH]c3ccccc23)cc1	inconclusive [inhibitor, single point]
O=C(CCc1nnc(-c2ccc3c(c2)OCO3)o1)N(Cc1ccncc1)CC1CCCO1 (stereo unspecified)	inconclusive [inhibitor, single point]
COc1ccc(Cl)cc1C(=O)Nc1nc(C)cc(C)n1	inconclusive [inhibitor, single point]
S=c1[nH]cc(-c2ccc(Cl)cc2)n1-c1ccccc1	active: 1.85 µM
Cc1ccc(O)c(CNc2cccc(C)n2)c1	inconclusive [inhibitor, single point]
COc1ccc(C)cc1NC(=O)CSc1nnc(COc2ccccc2)n1Cc1ccco1	inconclusive [inhibitor, partial curve, poor fit]
CC(C)c1nnc(NC(=O)CC23CC4CC(CC(C4)C2)C3)s1	inconclusive [inhibitor, single point]
CCc1ccccc1OCC(=O)N1CCN(c2ncccn2)CC1	inconclusive [inhibitor, single point]
O=C(CSc1nc2ccccc2c(=O)n1Cc1ccco1)c1ccc(F)cc1	inconclusive [inhibitor, single point]
COCc1c(C(=O)OCC(=O)c2c(N)n(CC(C)C)c(=O)n(C)c2=O)oc2ccccc12	inconclusive [inhibitor, single point]
C[C@H]1CN=C(N(C)C)N1CCC1CCCC1	inconclusive [inhibitor, single point]
CCOc1cc(CNCCc2ccc(S(N)(=O)=O)cc2)cc(Cl)c1OCc1ccccc1	active: 13.1 µM
Cc1ccc(N2CCN(S(=O)(=O)c3ccc(C)cc3)CC2)cc1	inconclusive [inhibitor, full curve, poor fit]
Cc1ccc(C(=O)NCCNc2ncc(C(F)(F)F)cc2Cl)cc1[N+](=O)[O-]	inconclusive [inhibitor, single point]
O=C(NCCNc1ccc([N+](=O)[O-])cc1C(F)(F)F)c1ccccc1	inconclusive [inhibitor, single point]
Cc1ccc(-c2nc(CN3CCCCC3)cc(CN3CCCCC3)c2O)cc1	active: 0.828 µM
CC(=O)c1cccc(NC(=O)COC(=O)[C@@H](NC(=O)OCc2ccccc2)C(C)C)c1	inactive
O=S(=O)(c1cccc(-c2n[nH]c(=S)o2)c1)N1CCOCC1	inconclusive [inhibitor, single point]
CCC(C)NS(=O)(=O)c1ccc(F)c(C(=O)Nc2c(F)cc(F)cc2Br)c1 (stereo unspecified)	inconclusive [inhibitor, single point]
COc1ccc(Cn2nc(-c3ccccc3)c(N3CCCCC3)cc2=O)cc1	inconclusive [inhibitor, full curve]
Cc1nc2n(c(=O)c1CCN1CCC(c3noc4cc(F)ccc34)CC1)CCCC2	inconclusive [inhibitor, single point]
COc1ccccc1N(CC(=O)Nc1ccc(S(=O)(=O)N2CCOCC2)cc1)S(C)(=O)=O	inconclusive [inhibitor, partial curve, poor fit]

Structure (SMILES)	Potency
CCN(CC(=O)Nc1c(F)cccc1F)C(=O)COc1ccc2c(c1)CCC2	inactive
CC(C)[C@H](NC(=O)N1CC(=O)Nc2ccccc21)C(=O)N1CCC(C(=O)O)CC1	inactive
COC(=O)c1cccc(NC(=O)c2ccc[n+]([O-])c2)c1	inconclusive [inhibitor, single point]
CCOC(=O)C1=C(CNC(C)(C)CC(C)(C)C)NC(=O)NC1c1cccc([N+](=O)[O-])c1 (stereo unspecified)	inconclusive [inhibitor, single point]
Cc1ccc(S(=O)(=O)Oc2ccc(/C=C(/NC(=O)c3ccccc3)C(=O)Nc3ccccc3)cc2)cc1	inconclusive [inhibitor, partial curve, poor fit]
Cc1noc(/C=C/c2cccs2)c1S(=O)(=O)N1CCC(C(=O)NCCCN2CCCC(C)C2)CC1 (stereo unspecified)	inconclusive [inhibitor, single point]
CCCCCCCN1C(Nc2ccccc2)=NC[C@@H]1C	inconclusive [inhibitor, single point]
CCOc1ccccc1NC(=S)N1CCN(c2nc(-c3ccc(F)cc3)cs2)CC1	inconclusive [inhibitor, partial curve, poor fit]
COc1cc(/C=C/C(=O)OCC(=O)N2c3ccccc3CC2C)cc(OC)c1OC (stereo unspecified)	inconclusive [inhibitor, single point]
CN(CC(=O)Nc1ccccc1Br)C(=O)CN1CCN(c2ccccc2Cl)CC1	inconclusive [inhibitor, single point]
Cc1cc(S(=O)(=O)N2CCN(c3c(C)cccc3C)CC2)ccc1F	inconclusive [inhibitor, single point]
O=C(NCC1CCCN(C(=O)NCc2ccccc2)C1)c1ccc2c(c1)OCO2 (stereo unspecified)	inactive
CC(C)c1nc(NCC2CCCO2)c(C#N)c2c1COC(C)(C)C2 (stereo unspecified)	active: 13.1 µM
CCN(CC)S(=O)(=O)c1ccc(OC)c(NC(=O)CC2CCCC2)c1	inconclusive [inhibitor, partial curve, poor fit]
CC1(C)CC(=O)c2cc(OCC(=O)O)ccc2O1	inactive
CCCCN(CCCC)CCCNC(=O)c1ccc2nc(-c3ccccc3NC(C)=O)c(=O)[nH]c2c1	inconclusive [inhibitor, single point]
CN(C)C1=NC[C@H](Cc2ccccc2)N1CCc1ccc(F)cc1	inconclusive [inhibitor, single point]
C=CCn1c(C)cc(-c2csc(NC(=O)C3=COCCO3)n2)c1C	active: 5.22 µM
O=S(=O)(c1ccc(Cl)cc1)c1cnc(-c2cccnc2)nc1-c1ccccc1	inconclusive [inhibitor, single point]
O=C(NC1C2CC3CC(C2)CC1C3)c1ccc(Br)o1 (stereo unspecified)	inconclusive [inhibitor, partial curve, poor fit]
CCCCCCCN1CCN=C1N(C)C	inconclusive [inhibitor, single point]
CCN1CCN(C(=S)Nc2ccc3nc(N4CCN(C)CC4)cc(C)c3c2)CC1	inconclusive [inhibitor, single point]
